The RNAGym collection of RNA variant scans (doi:10.1101/gad.245936.114)
Variants at the floor of the assay are shown more often than the library holds them.

B1: tRNA (parent)
chain: CUCUCGGUAGCCAAGUUGGUUUAAGGCGCAAGACUUUAAUUUAUCACUACGAAAUCUUGAGAUCGGGCGUUCGACUCGCCCCCGGGAGAUUUUUUCCUCGAGCAA

Variants of: B1
Test: nonsense suppression (GFP-seq) (ratio to wild type); higher = more function; SUP4oc tRNA, yeast GFP reporter sort-seq
Method in brief: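 To measure nonsense suppression, tRNA variants from a library carrying ~3% random mutations were integrated into the yeast genome alongside RFP and a GFP ochre reporter under galactose control. Growth took place in raffinose/galactose medium supplemented with 80 mg/L adenine, followed by sorting into GFP/RFP bins and Illumina sequencing of each bin (phred ≥30). For each variant with ≥100 reads and ≥30 cells, the bin median GFP/RFP values were weighted by its estimated cell share per bin and referenced to the unmutated parent tRNA.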

**Q.** For CUCUCAGUAGCCAAGUUGGUUUAAGGCGCAAGACUUUAAUUUAUCACUACGAAAUCUUGAGAUCGGGCGUUCGACUCGCCACCGGGAGAUUUUUUCCUCGAGCAA, which nonsense suppression is on record?
**A.** ≤ 0.026

**Q.** Which nonsense suppression does the source give for CUCUCAGUAGCCAAGUUGGUUUAAGGCGCAAGACUUUAAUUUAUCACUACGAAAUCUUGAGAUCGGGCGUUCGACUCGCCGCCGGGAGAUUUUUUCCUCGAGCAA here?
**A.** ≤ 0.026

**Q.** Which nonsense suppression does the source give for CUCUCAGUAGCCAAGUUGGUUCAAGGCGCCAGACUUUAAUUUAUCACUACGAAAUCUUGAGAUCGGGCGUUCGACUCGCCCCCGGGAGGUUUUUUCCUCGAGCAA here?
**A.** ≤ 0.026

**Q.** For CUCUCAGUAGCCAAGUUGGUGUAAGGCGCAAGACUUUAAUUUAUCACUACGAACUCUUGAGAUCGGGCGUACGACUCGCCCCCGGGAGAUUUUUUCCUCGAGCAA, which nonsense suppression is on record?
**A.** ≤ 0.026

**Q.** With CUCUCAGUAGCCAAGUUGGUUUAAGGCGCAAGACUUUAAUUUAUCACUACGAAAUCUUGAGAUCGGGCGUUCGACACGCCCCCGGGAGAUUUUUUCCUCGAGCAA as the variant, how does the nonsense suppression read?
**A.** ≤ 0.026

**Q.** For CUCUCAGUAGCCAAGUUGGUUUAAGGCGCAAUACUUUAAUUUAUCACUACGAAAUCUUGAGAUCUCCCGUUCGACUCGUCCCCGGGAGAUUUUUUCCUCGAGCAA, which nonsense suppression is on record?
**A.** ≤ 0.026

**Q.** Which nonsense suppression does the source give for CUCUCAGUAGCCAAGUUGGUUUAAGGCGCAAGACUUUAAUUUAUCACUACGAAAUCUUGAGAUAGGGCGUCCGACUCGCCCCCGGGGGGUUUUUUCCUCGAGCAA here?
**A.** ≤ 0.026

**Q.** Which nonsense suppression does the source give for CUCUCAGGAGCUAAGUUGGUUUAAGGCGCAAGCCUUUAAUUUAUCACUACGAAAUCUUGAGAUCGGGCGUUCGACUCGCCCCCGGGAGAUUUUUUCCUCGAGCAA here?
**A.** ≤ 0.026

**Q.** For CUCUCAGUAGCCAAGUAGGUUUACGGCGCAAGACUUUAAUUUAUCACUACGAAAUCUUGAGAUCGGGCGUUCGACUCGCCCCCGGGAGAUUUUUUCCUCGAGCAA, which nonsense suppression is on record?
**A.** ≤ 0.026

**Q.** For CUCUCAUUAGCCAAGUUGGUUUAAGGCGCAAGACUUUAAUUUAUCACUACGAACUCUUGAGAUCGGGCGUUCGACUCGCCCCCGGGAGAUUUUUUCCUCGAGCAA, which nonsense suppression is on record?
**A.** ≤ 0.026

**Q.** Which nonsense suppression does the source give for CUCUCAGUAGCCAAGUUUGUUUAAGGCGCAAGACUUUAAUUUAUCACUACGAAAUCUUGAGAUCGGGCAUUCGACUCGCCCCCGGGAGAUUUUUUCCUCGAGCAA here?
**A.** ≤ 0.026

**Q.** Which nonsense suppression does the source give for CUCUCAGUAGCCAAGUUGUUUUAAGGCGCAAGACUUUAAUUUAUCACUACGAAAUUUUGAUAUCGGGCGUUCGUCUCGCCCCCGGGAGAUUUUUUCCUCGAGCAA here?
**A.** ≤ 0.026

**Q.** For CUCUCAGUAGCCAACUUGGUUUAAGGCGCAAGACUUUAAUUUAUCACUACGAAAUCUUGAGCUCGGGCGUUCGACUCGCCCCCGGGAGAUUUUUUCCUCGAGCAA, which nonsense suppression is on record?
**A.** ≤ 0.026

**Q.** For CUCUCAGUAGCCAAGUCGGUUUAAGGCGCAAGACUUUAAUUUAUCACUACGAAAUCUUUAGAUCGGGCGUUCGACUCGCCCACGGGAGAUUUUUUCCUCGAGCAA, which nonsense suppression is on record?
**A.** ≤ 0.026

**Q.** Which nonsense suppression does the source give for CUCUCAGUAGCCAAGUUGGUUUAAGGCGCAAGACUUUAAUUUAUCACUACGAAACCUUGAGAUCGGGCGUUCGACCCGCCCCCGGGAGAUUUUUUCCUCGAGCAA here?
**A.** ≤ 0.026

**Q.** With CUCUCAGUAGCCAAGUUGGUUUAAGGCGCAAGACUUUAAUUUAUCACUACGAAAUCUUGAGAUCGGGCGUUCGACUCGCCCCCGGCAGAUUUUUUCCUCGAGCAA as the variant, how does the nonsense suppression read?
**A.** ≤ 0.026

**Q.** For CUCUCAGUAGCCAAGCUGGUUUAAGGCGCAAGACUUUAAUUUAUCACUACGAAAUCUUCAGAUCGGGCGUUCGACUCGCCCCCGGGAGAUUUUUUCCUCGAGCAA, which nonsense suppression is on record?
**A.** ≤ 0.026

**Q.** Which nonsense suppression does the source give for CUCUCCGUUGCCAAGUUGGUUUAAGGCGCAAGACUUUAAUUUAUCACUACGAAAUCUUGAGAUCUGGCGUUCGACUCGCCCCCGCGAGAUUUUUUCCUCGAGCAA here?
**A.** ≤ 0.026

**Q.** For CUCUCAGUAGCCAAGUUGGUUUAAGGCGCAAGACUUUAAUUUAUCACUACGAAAUCUUGACAUCGGGCGUUCGACUCGCCUCCGGGAGAUUUUUUCCUCGAGCAA, which nonsense suppression is on record?
**A.** ≤ 0.026

**Q.** Which nonsense suppression does the source give for CUCUCAGUAGCCAAGUUGGUUUAAGGCGAAAGACUUUAAUUUAUCACUACGAAAUCUUGAGAUCGGGCUUUCGACUCGCCCCCGGGAGAUUUUUUCCUCGAGCAA here?
**A.** ≤ 0.026

**Q.** With CUCUCAGUAGCCAAGUUGCUUUAAGGCGCAAGACUUUAAUUUAUCACUACGAAAUCUUGAGAUCGGCCGUUCGACUCGCCCCCGGGGGAUUUUUUCCUCGAGCAA as the variant, how does the nonsense suppression read?
**A.** ≤ 0.026

**Q.** Which nonsense suppression does the source give for CUCUCAGUAGCCAAGUUGGUUUAAGGCCCAAGACUUUAAUUUAUCACUACGAAAUCUUGAGAUCGGGCGUUCGACUCGCCCCCGGGAGAUUUUUUCCUCGAGCAA here?
**A.** 0.0666

**Q.** Which nonsense suppression does the source give for CUCUCAGUAGCCAAUUUGGUUUAAGGCGCAAGACUUUAAUUUAUCACUACGAAUUCUUGAGAUCGGGCGUUCGACUCGCCCCCGGGAGAUUUUUUCCUCGAGCAA here?
**A.** ≤ 0.026

**Q.** For CUCUCAGUAGCCAAGUAGCUUUCAGGCGCAAGACUUUAAUUUAUCACUACGAAAUCUUGAGAUCGAGCGUUCGACUCGCCCCCGGUAGAUUUUUUCCUCGAGCAA, which nonsense suppression is on record?
**A.** ≤ 0.026

**Q.** With CUCUCAGUAGCCAAGUUGGUUUAAGGUGCAAGACUUUAAUUUAUCACUACGAAAUCUUGAGAUCGGGCGUUCGACUCGCCCCCGGGAAAUUUUUUCCUCGAGCAA as the variant, how does the nonsense suppression read?
**A.** ≤ 0.026

**Q.** For CUCUCCGUGGCCAAGUUGGUUUAAGGCGCAAGCCUUUAAUUUAUCACUACGAAAUCUUGAGAUCGGGCGUUCGACUCGCUCCCGGGAGAUUUUUUCCUCGAGCAA, which nonsense suppression is on record?
**A.** ≤ 0.026

**Q.** With CUCUCCGUAGCCCAGUUGGUUUAAGGCGCAAGACUUUAAUUUAUCACUACGAAAUCUUGAGAUCGGGCGUUCGACUCGCCCCCGGGAGAUUUUUUCCUCGAGCAA as the variant, how does the nonsense suppression read?
**A.** ≤ 0.026
